# Measured values as given in PMC4336329 (PLoS ONE, 2015).
# About 2,200 (0.71%) of roughly 310,000 compounds showed an effect of 50% or more. Effects have a minus sign here. Some of the results follow.
# Molecular target: human ether-à-go-go-related gene (hERG) potassium channel (human, UniProt Q12809)
# Assay: primary screen, population patch clamp on CHO cells stably expressing hERG
# human ether-à-go-go-related gene (hERG) potassium channel, sequence (Q12809 whole entry, looked up): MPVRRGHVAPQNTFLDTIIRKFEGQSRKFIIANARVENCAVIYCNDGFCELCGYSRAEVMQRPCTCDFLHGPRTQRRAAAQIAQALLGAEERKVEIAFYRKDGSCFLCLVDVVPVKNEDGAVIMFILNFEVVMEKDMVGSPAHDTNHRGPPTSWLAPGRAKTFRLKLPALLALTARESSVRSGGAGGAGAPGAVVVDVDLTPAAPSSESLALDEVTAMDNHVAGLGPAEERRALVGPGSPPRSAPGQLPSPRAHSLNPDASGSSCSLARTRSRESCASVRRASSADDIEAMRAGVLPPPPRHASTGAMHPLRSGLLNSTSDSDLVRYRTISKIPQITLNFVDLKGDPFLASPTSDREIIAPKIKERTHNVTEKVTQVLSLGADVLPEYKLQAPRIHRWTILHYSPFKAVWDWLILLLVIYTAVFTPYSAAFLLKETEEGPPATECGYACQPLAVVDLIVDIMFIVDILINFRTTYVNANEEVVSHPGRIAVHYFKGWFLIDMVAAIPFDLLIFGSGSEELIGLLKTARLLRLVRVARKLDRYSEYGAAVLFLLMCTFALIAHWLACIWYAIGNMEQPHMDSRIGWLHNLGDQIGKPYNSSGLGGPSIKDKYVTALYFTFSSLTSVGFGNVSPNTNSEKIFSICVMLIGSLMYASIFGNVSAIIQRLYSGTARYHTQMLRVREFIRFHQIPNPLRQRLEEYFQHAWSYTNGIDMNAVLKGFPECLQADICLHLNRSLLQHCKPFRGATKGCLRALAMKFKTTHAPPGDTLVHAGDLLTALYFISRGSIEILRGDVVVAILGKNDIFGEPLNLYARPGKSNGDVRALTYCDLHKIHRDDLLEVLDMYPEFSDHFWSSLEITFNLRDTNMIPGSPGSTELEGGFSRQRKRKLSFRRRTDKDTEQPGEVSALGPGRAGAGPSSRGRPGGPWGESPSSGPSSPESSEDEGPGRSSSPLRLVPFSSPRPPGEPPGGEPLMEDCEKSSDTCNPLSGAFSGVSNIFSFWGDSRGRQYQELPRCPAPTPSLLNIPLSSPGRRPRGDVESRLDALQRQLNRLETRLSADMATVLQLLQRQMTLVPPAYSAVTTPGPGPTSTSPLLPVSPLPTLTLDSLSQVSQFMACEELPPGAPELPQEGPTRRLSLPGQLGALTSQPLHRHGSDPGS
row,SMILES,"hERG current change (%, negative = inhibition) at 1uM"
1,Cc1ccc(NC(=O)c2cc(C)on2)cc1,6.42%
2,O=C(COC(=O)c1cccnc1Cl)Nc1ncc(Cl)cc1Cl,4.88%
3,Cc1onc(-c2ccccc2Cl)c1C(=O)NCc1ccco1,10.2%
4,O=C(NC1CCCCCC1)c1cc2ccccc2oc1=O,14.4%
5,O=C(CCCCl)Nc1c2c(nn1-c1ccccc1)CSC2,15.3%
6,Cc1ccc(-n2c(SCc3nc4ccccc4c(=O)[nH]3)nnc2-c2ccccc2O)cc1,-3.43%
7,OCCC1CN(CCCc2ccccc2)CCN1Cc1ccc(F)cc1 (centres unmarked),-12.1%
8,COc1ccc(CCNCc2ccccc2F)cc1.O=C(O)C(=O)O,-7.49%
9,CC(=O)c1c(C)[nH]c(C(=O)OCC(=O)NCCCc2ccccc2)c1C,-0.308%
10,CCCCOCCCNC(=O)c1ccc(NC(C)=O)cc1,1.07%
11,Cc1ccccc1NC(=O)/C(C#N)=C\c1cc(C)n(-c2ccc(C(=O)O)cc2)c1C,11.7%
12,COCCC(=O)N1CCc2ccc(NC(=O)c3ccc(C(F)(F)F)cc3)cc2C1,3.67%
13,Cc1cccc(C)c1NC(=O)CSc1nnc(Cn2nnc(-c3ccccc3)n2)n1-c1ccccc1,-15%
14,CCC1Nc2ccccc2-c2nnc(SC)nc2O1 (centres unmarked),5.26%
15,CC(C)CN(C(=O)COC(=O)c1ccc2ccccc2c1)c1c(N)n(Cc2ccccc2)c(=O)[nH]c1=O,-2.87%
16,COC(=O)c1cccc(NC(=O)CN2C(=O)c3ccccc3C2=O)c1,6.13%
17,Cc1cc(C)cc(OC(C)c2ccnc3nc(/N=C/N(C)C)nn23)c1 (centres unmarked),19.4%
18,Cc1cccc(CN2C(=O)CSc3ccc(C(=O)NC4CC4)cc32)c1,6.03%
19,Cn1c(-c2ccc(F)cc2)cnc1NCc1ccccc1F.O=C(O)C(=O)O,-1.7%

row,SMILES,"hERG current change (%, negative = inhibition) at 1uM"
1,N#CCN1C(=S)N=C(Nc2cccc(Cl)c2)C12CCCCC2,2.49%
2,CC(=O)Nc1ccc(C(=O)COC(=O)c2c(C)noc2C)c(F)c1,3.59%
3,O=C(N/N=C/c1cccnc1)c1cc2ccccc2o1,3.33%
4,Cn1nnnc1Sc1ncnc2scc(-c3ccc(F)cc3)c12,-4.85%
5,CCOC(=O)C1CCN(C(=O)C(C)c2ccc([N+](=O)[O-])cc2)CC1 (centres unmarked),7.01%
6,Cc1cccc(CN2CCN(c3ncccn3)CC2)c1,9.11%
7,OCC1OC(n2cnc3ccccc32)CC1O (centres unmarked),9.78%
8,Cc1cc(SCc2ccccc2C)nc(=O)[nH]1,16%
9,COc1cc(S(=O)(=O)NCCCN2CCOCC2)ccc1Cl,9.28%
10,O=C(Cn1nc(-c2ccc(Cl)cc2)c2ccccc2c1=O)NN1CCOCC1,13.2%
11,Cc1ccc(N2CC(C(=O)Nc3ccc(N4CCOCC4)cc3)CC2=O)cc1C (centres unmarked),15%
12,C/C(CC(=O)NC12CC3CC(CC(C3)C1)C2)=N\NC(=O)c1ccc(C)cc1,19%
13,CCc1nc2ccccc2[nH]c1=O,8.08%
14,O=C(NCc1cc(Br)cc(Br)c1OC(=O)c1ccccc1[N+](=O)[O-])c1ccccc1,13.1%
15,O=C(NC(=S)NNS(=O)(=O)c1ccccc1)c1ccccc1[N+](=O)[O-],15.5%
16,C/C(=C\C(=O)c1ccc(Br)cc1)Nc1ccc(Cl)cc1,12.6%
17,CC(OC(=O)Cn1cc(C(F)(F)F)ccc1=O)C(=O)NC(C)c1ccc(Cl)cc1Cl (centres unmarked),11.9%
18,Cc1ccc(Cl)cc1N1CCN(C(=O)CN2C(=O)c3cccc4cccc2c34)CC1,5.11%
19,CN(Cc1ccccc1)S(=O)(=O)c1ccc(NS(C)(=O)=O)cc1,-13.3%

row,SMILES,"hERG current change (%, negative = inhibition) at 1uM"
1,CCCCC(=O)Nc1ccc(C(=O)NCC(=O)OC)cc1,7.3%
2,COc1ccc(C(=O)n2nc(-c3ccco3)nc2SC)cc1OC,4.51%
3,CCCC(=O)Nc1cc(-c2nn(C)c(=O)c3ccccc23)ccc1N1CCOCC1,-15.1%
4,CCC(C(=O)NC1CCCC1)N(Cc1cccs1)C(=O)Cn1nnc(-c2ccc(OC)c(OC)c2)n1 (centres unmarked),1.45%
5,COc1ccc(C(=O)N2CCCCCC2)cc1OC1CCN(C(C)=O)CC1,6.96%
6,CCN(C(=O)COC(=O)CCn1c(C)csc1=O)c1c(N)n(Cc2ccccc2)c(=O)[nH]c1=O,7.6%
7,NC(=O)C1CCCN(CC(O)COCc2ccc(Cl)cc2)C1.O=C(O)C(=O)O (centres unmarked),11.5%
8,CCOC(=O)C(C(=O)NCC1CCCO1)C1CCCCC1 (centres unmarked),12.7%
9,O=C1CCC(C(=O)OC(C(=O)Nc2ccc([N+](=O)[O-])cc2Br)c2ccccc2)=NN1 (centres unmarked),0.119%
10,Cc1ccc(C(=O)OCC(=O)Nc2cccc(S(=O)(=O)N3CCOCC3)c2)o1,-19.2%
11,O=C(Nc1ccn(Cc2c(F)c(F)cc(F)c2F)n1)c1cccc(Cn2cc([N+](=O)[O-])cn2)c1,3.98%
12,Cn1c(=O)c2c(nc(N/N=C/c3c(O)n(-c4ccccc4)c(=S)[nH]c3=O)n2C)n(C)c1=O,4.23%
13,O=C(Cn1nnc2ccccc2c1=O)N[C@H](C(=O)O)c1ccccc1,7.56%
14,CCCC(=O)c1cc(F)c(N2CCN(S(=O)(=O)c3ccccc3)CC2)cc1C,8.01%
15,O=C(COC(=O)CCCc1c[nH]c2ccccc12)Nc1ccc2c(c1)OCO2,17.7%
16,CCCc1cc(=O)n2nc(N3CCC(C(=O)NCc4ccco4)CC3)sc2n1,5.15%
17,COc1ccc2c(c1)C(=O)C(=O)N2CC1COc2ccccc2O1 (centres unmarked),13.7%
18,N#C/C(=N\Nc1ccc(Cl)cc1)C(=N)N1CCCCC1,0.289%
